Laboratory results reported in paper PMC9918506, “Structural insights into pathogenic mechanism of hypohidrotic ectodermal dysplasia caused by ectodysplasin A variants” (Nature Communications, 2023).
These are yes or no findings as the source states them, for the method shown. For part of these data: Binding seen in cells or lysates may run through a third protein. Some results given as binding are weak or reduced against the parent protein; the word gives no strength. Tags and fused reporters may be left off the sequences shown.

Sequences of proteins named here, by UniProt entry; tags and fusion partners are left off. A change or cut given only in a name is not applied to a line headed by its entry. A line that says so, or that is headed by a name, gives the form on record, which may keep a tag or linker. Residues count along the entry.
EDA·A1 TNF homology domain (EDA·A1THD, residues 233–391), wild type (Q92838, residues 233-391): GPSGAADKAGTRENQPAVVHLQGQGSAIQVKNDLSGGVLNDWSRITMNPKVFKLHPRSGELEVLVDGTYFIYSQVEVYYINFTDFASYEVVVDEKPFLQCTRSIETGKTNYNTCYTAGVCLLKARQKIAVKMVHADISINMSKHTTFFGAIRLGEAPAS
EDA·A1THD (residues 233–391) D265G (Q92838, form named): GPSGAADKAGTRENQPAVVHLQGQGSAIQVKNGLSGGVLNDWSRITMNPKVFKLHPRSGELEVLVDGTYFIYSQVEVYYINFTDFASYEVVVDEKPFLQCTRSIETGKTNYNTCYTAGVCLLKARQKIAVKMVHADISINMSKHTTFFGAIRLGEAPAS
EDA·A1THD (residues 233–391) A259E (Q92838, form named): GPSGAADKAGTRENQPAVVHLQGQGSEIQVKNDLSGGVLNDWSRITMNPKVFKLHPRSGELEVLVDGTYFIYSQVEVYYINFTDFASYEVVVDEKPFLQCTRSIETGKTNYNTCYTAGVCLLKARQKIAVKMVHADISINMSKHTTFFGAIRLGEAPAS
EDA·A1THD (residues 233–391) R276C (Q92838, form named): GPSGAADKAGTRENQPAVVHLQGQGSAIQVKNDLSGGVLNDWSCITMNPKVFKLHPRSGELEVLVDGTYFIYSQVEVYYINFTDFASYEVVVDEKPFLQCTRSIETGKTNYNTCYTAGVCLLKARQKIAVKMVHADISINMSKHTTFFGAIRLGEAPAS
human soluble Flag-EDA·A1THD (amino acids 233–391) A259E (Q92838, form named): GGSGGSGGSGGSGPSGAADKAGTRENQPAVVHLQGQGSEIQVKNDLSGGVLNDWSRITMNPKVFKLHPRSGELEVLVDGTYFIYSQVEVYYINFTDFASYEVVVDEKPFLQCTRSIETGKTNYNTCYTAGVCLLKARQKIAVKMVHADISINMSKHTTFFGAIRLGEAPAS
human soluble Flag-EDA·A1THD (amino acids 233–391) R276C (Q92838, form named): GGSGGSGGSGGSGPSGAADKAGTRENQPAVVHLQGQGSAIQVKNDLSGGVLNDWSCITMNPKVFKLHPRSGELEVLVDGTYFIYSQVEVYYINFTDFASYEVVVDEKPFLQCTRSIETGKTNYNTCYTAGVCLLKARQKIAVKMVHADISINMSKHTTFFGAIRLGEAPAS
human soluble Flag-EDA·A1THD (amino acids 233–391), wild type (Q92838, form named): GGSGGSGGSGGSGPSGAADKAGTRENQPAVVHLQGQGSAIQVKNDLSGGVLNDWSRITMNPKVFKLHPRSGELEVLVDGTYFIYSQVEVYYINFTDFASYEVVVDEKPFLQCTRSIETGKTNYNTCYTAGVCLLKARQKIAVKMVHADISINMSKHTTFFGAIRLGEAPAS
human soluble Flag-EDA·A1THD (amino acids 233–391) D265G (Q92838, form named): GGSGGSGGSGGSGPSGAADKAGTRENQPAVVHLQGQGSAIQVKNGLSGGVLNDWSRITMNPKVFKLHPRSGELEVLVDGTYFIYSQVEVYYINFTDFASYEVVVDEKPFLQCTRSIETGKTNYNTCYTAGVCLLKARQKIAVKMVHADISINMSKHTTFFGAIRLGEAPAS

Experiments:
[1] = biological target: EDA·A1 TNF homology domain (EDA·A1THD, residues 233–391), wild type (human) (UniProt Q92838); test: SEC; gel filtration of purified EDA·A1THD and EDAR_(CRDS); comigration; both purified
[2] = biological target: EDA·A1 TNF homology domain (EDA·A1THD, residues 233–391), wild type (human) (UniProt Q92838); test: crystal structure; EDA·A1THD and EDAR_(CRDS) mixed at a molar ratio of 1:1; crystals in 25% PEG-6000, 0.1 M BICINE pH 9.0, 4 °C; 2.8 Å; both purified
[3] = biological target: EDA·A1THD (residues 233–391) D265G (human) (UniProt Q92838); test: SPR; WT and mutant EDA·A1THD immobilised on CM5 chips, EDAR_(CRDS) serially diluted and injected; Biacore 8K; 10 mM HEPES pH 7.5, 150 mM NaCl, 3 mM EDTA, 25 °C; steady-state analysis at equilibrium; both purified
[4] = biological target: EDA·A1THD (residues 233–391) A259E (human) (UniProt Q92838); test: as above
[5] = biological target: EDA·A1THD (residues 233–391) R276C (human, UniProt Q92838 233-391, R276C); test: as above
[6] = biological target: human soluble Flag-EDA·A1THD (amino acids 233–391) A259E (human) (UniProt Q92838); test: pull-down; supernatant of HEK293T cells with Flag-EDA·A1THD (WT or mutant) incubated with purified EDAR_(CRDS)-MBP at 4 °C, then Flag beads; 25 mM Tris pH 7.5, 150 mM NaCl, 0.5% NP40; immunoblot with anti-MBP and anti-Flag; human and mouse proteins; only the binder purified
[7] = biological target: human soluble Flag-EDA·A1THD (amino acids 233–391) R276C (human) (UniProt Q92838); test: as above
[8] = biological target: human soluble Flag-EDA·A1THD (amino acids 233–391), wild type (human) (UniProt Q92838); test: as above
[9] = biological target: human soluble Flag-EDA·A1THD (amino acids 233–391) D265G (human) (UniProt Q92838); test: as above

B1: EDAR cysteine-rich domains (EDAR_(CRDS), residues 30–150), MBP tag removed (domain or fragment, human)
chain: GGSGGSGGSGGSNCGENEYYNQTTGLCQECPPCGPGEEPYLSCGYGTKDEDYGCVPCPAEKFSKGGYQICRRHKDCEGFFRATVLTPGDMENDAECGPCLPGYYMLENRPRNIYGMVCYSCLLAPPNTKECVG
notes: EDAR (ectodysplasin A receptor), human, cysteine-rich domains CRD1-CRD3, residues 30-150; Construct: EDAR signal peptide (residues 1-28), MBP, 3C site, linker, EDAR 30-150; That the linker stays on the protein after 3C cleavage follows only from the order in which the methods list the elements; also called ectodomains of EDAR; source: Hi5 insect cells (baculovirus), secreted, purified (amylose, …)
In the case of B1, the binding [1] is reported as “binds”, the binding [2] is reported as “binds” and the binding [3] is reported as “no binding”. For the same binder, the binding [4] was “no binding” and the binding [5] was “binds”.

B2: human EDAR_(CRDS)-MBP (residues 30–150 with MBP tag) (domain or fragment, UniProt Q9UNE0 30-150)
chain: B1 chain
B2 was tested, and the binding [6] was “no binding”, the binding [7] was “binds” and the binding [8] was “binds”. For the same binder, the binding [9] was “no binding”.
